From article PMC6919601, “Identification of Plasmodium dipeptidyl aminopeptidase allosteric inhibitors by high throughput screening” (PLoS ONE, 2019) come the findings set out here.

Each structure is given as a SMILES string. Out of some 110,000 compounds screened, about 230 (0.21%) showed an effect of 50% or more. The list shows a part of the results.
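Also: 30 min substrate incubation versus DMSO and 10 µM JCP410 controls.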

This experiment deals with DPAP1 (Plasmodium falciparum, UniProt Q8IIJ9). As to the kind of experiment: primary screen, percent inhibition; read by cleavage of a fluorogenic dipeptide substrate; higher = more effect of the substance. On the set-up: species or system P. falciparum D10 trophozoite lysates; single well.
DPAP1, sequence (Q8IIJ9 whole entry, looked up): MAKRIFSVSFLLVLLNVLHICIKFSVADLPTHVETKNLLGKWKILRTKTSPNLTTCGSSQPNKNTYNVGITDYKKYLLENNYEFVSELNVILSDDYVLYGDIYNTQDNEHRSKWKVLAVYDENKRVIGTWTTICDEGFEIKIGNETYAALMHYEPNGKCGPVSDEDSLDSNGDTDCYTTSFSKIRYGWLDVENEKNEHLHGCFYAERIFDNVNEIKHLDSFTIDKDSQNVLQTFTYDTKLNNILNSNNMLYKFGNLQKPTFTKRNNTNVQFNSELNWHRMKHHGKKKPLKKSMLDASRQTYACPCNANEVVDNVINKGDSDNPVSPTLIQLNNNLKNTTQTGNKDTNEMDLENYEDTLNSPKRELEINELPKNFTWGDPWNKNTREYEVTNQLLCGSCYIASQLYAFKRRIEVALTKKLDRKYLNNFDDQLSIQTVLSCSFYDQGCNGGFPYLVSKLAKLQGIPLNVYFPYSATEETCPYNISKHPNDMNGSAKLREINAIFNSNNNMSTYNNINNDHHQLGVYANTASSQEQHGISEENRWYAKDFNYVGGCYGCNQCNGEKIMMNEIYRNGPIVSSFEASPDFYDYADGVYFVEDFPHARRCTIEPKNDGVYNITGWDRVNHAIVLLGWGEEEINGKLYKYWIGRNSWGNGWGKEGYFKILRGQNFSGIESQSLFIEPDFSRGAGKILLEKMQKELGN
Consider `CCOc1ccc(S(=O)(=O)N(CC(=O)NC2CCCC2)c2ccccc2)cc1`, for which the “% Inhibition @ 10 uM” value turned out to be 0.54%.

Take `Clc1ccc(OCC2COCCO2)cc1` (stereo not drawn): the “% Inhibition @ 10 uM” value is 4.61%.

Take `O=C(CCn1c(=O)c2sccc2n(CC(=O)c2ccccc2)c1=O)NCCc1ccc(Cl)cc1`: the “% Inhibition @ 10 uM” value worked out at 11.4%.

As for `CN(C)c1ccc2c(c1)OC(N)=C(C#N)C2c1ccoc1` (stereo not drawn), the “% Inhibition @ 10 uM” value is given as -3.42%. In the case of `COc1oncc1NC(=O)[C@H](CC1CCCCC1)NC(=O)c1ccccc1`, the “% Inhibition @ 10 uM” value is -5.21%. In the case of `Cc1ccc(S(=O)(=O)ON2C(=O)c3ccccc3C2=O)cc1`, the “% Inhibition @ 10 uM” value is recorded as 1.16%. The same measure for `O=C(NCCCN1CCOCC1)c1nnc(Cc2ccc(F)cc2)o1`: -3.8%; for `FC(F)(F)c1ccc(-c2noc(-c3ccc(Br)o3)n2)cc1`: 2.62%; for `COc1ccccc1OCCCN1CCCCC1`: -4.3%. Turning to `COc1ccc(Br)cc1CNC(=O)C(C)n1c(=O)c2cccn2c2cccnc21` (stereo not drawn), the “% Inhibition @ 10 uM” value came out at 2.33%. With `O=C(CCc1ccccc1)NCCCN1CCOCC1`, the “% Inhibition @ 10 uM” value was determined as 2.56%. With `C=CCOc1ccc(/C=C2\SC(N3CCCCCC3)=NC2=O)cc1` the figure was 2.03%; with `CC1=C(C#Cc2ccccc2)c2ccccc2OC1(c1ccccc1)N1CCCCC1` (stereo not drawn), -7.11%.

Regarding `Cc1cc(=O)oc(C)c1C(=O)NCCC1=CCCCC1`, the “% Inhibition @ 10 uM” value was -4.06%.

Take `CCOc1cc(C2NC(C(=O)O)CS2)cc(Br)c1OCc1ccccc1C` (stereo not drawn): the “% Inhibition @ 10 uM” value stood at 1.19%.

Turning to `CCC1(c2ccccc2)C(=O)N(Cc2ccccc2)C(=O)N(Cc2ccccc2)C1=O`, the “% Inhibition @ 10 uM” value was -6.83%. Regarding `CC1=C(C(=O)Nc2cccnc2)C(c2ccccc2Cl)n2nc(SCc3ccccc3)nc2N1` (stereo not drawn), the “% Inhibition @ 10 uM” value is recorded as 1.26%. With `CCOC(=O)N1CCN(C(=O)c2cccc(OC(F)(F)C(F)F)c2)CC1` the figure was 3.86%; with `N#CC1=C2SCN(Cc3ccco3)CN2C(=O)CC1c1cccc2ccccc12` (stereo not drawn), 45.5%. With `CCOC(=O)NC12CC3CC(CC(C3)C1)C2` the figure was -2.41%.

As for `CCOc1cc(C2NCCc3cc(OCC)c(OCC)cc32)ccc1O` (stereo not drawn), the “% Inhibition @ 10 uM” value stood at 4.05%. With `Cc1ccc(-c2cc(NC(=O)COc3ccc(C(C)C)cc3)on2)cc1` the figure was -1.47%; with `COC(=O)C1=CN(Cc2cccs2)C=C(C(=O)OC)C1c1ccc(C)s1`, -8.86%. With `O=C(O)[C@H]1CCCC[C@H]1C(=O)Nc1ccc(S(=O)(=O)N2CCOCC2)cc1` the figure was -0.68%.

In the case of `COc1ccc(/C=C(\C#N)c2nc(-c3ccc(C)cc3)cs2)cc1`, the “% Inhibition @ 10 uM” value was -6.11%. Turning to `COc1ccc2c(c1)-c1nc(NC(C)=O)sc1CC2`, the “% Inhibition @ 10 uM” value is recorded as -2.17%. Consider `CCO/C(O)=C1\C(C)=NC2=C(C(=O)CCC2)C1c1ccccc1Cl` (stereo not drawn), for which the “% Inhibition @ 10 uM” value is on record as -2.87%. As for `COc1ccc(C2CC(c3ccc(C)cc3)Nc3nnnn32)c(OC)c1OC` (stereo not drawn), the “% Inhibition @ 10 uM” value is -5.19%. With `O=C(O)C1Cc2c([nH]c3ccccc23)C(c2cccc([N+](=O)[O-])c2)N1` (stereo not drawn) the figure was -2.72%. As for `CC12CCCCC1CCC1C2CCC2(C)C(NCC(O)COc3ccccc3)CCC12` (stereo not drawn), the “% Inhibition @ 10 uM” value is on record as 0.219%.

Take `NS(=O)(=O)c1ccc(CCNC(=O)CSc2nc3ccsc3c(=O)n2CC(=O)O)cc1`: the “% Inhibition @ 10 uM” value is 4.63%. With `CNc1ccc(Br)cc1-c1nc2ccccc2nc1O` the figure was -0.693%; with `Cc1nn(C)cc1CNC(=O)c1cc2nc(-c3ccc4c(c3)OCO4)cc(C(F)(F)F)n2n1`, 0.812%. The same measure for `Cc1cc(O)c(NC(=O)c2cccc(Cl)c2)cc1C`: 1.57%; for `C=CCSc1nc2c(cc1C#N)CCCC2`: 3.1%. Regarding `Cc1ccc(-c2nc(C(=O)N3CCN(C(=O)c4ccco4)CC3)c3n2CCCCC3)cc1`, the “% Inhibition @ 10 uM” value is listed as -4.99%. `Cc1nn(CC(=O)N2CCC(C)CC2)c(=O)c2cc3cc(F)ccc3n12`: the “% Inhibition @ 10 uM” value amounted to 1.68%. With `CC(=O)N1CCC2(CC1)OC(=O)C(C)=C2C(=O)N1CCN(c2ncccn2)CC1` the figure was 3.62%; with `O=C(Nc1ccc2c(c1)OCCO2)c1cccc(OC(F)(F)C(F)F)c1`, -1.79%.

With `O=C(Nc1nc(-c2ccc(Cl)cc2)cs1)C1CC1`, the “% Inhibition @ 10 uM” value is listed as -6.25%. For `Cn1c(-c2ccccc2)cnc1SCC(=O)NCc1ccco1`, the “% Inhibition @ 10 uM” value stood at 1.37%. The same measure for `CC(C)Oc1ccc(C(=O)Nc2c3c(nn2-c2ccc(F)cc2)CS(=O)(=O)C3)cc1`: -0.657%. The same measure for `CNc1nnc(-c2cc3ccccc3oc2=O)s1`: -3.83%. As for `COc1cccc(-c2ccc3c(n2)sc2c(=O)[nH]c(=O)[nH]c23)c1`, the “% Inhibition @ 10 uM” value is given as -0.0555%.

Turning to `CC1CC(C)CN(C2CCN(CCc3ccccc3)CC2)C1` (stereo not drawn), the “% Inhibition @ 10 uM” value was -0.414%.

Consider `C=CCOc1ccc(CNc2ccc3[nH]c(O)nc3c2)cc1`, for which the “% Inhibition @ 10 uM” value was -3.23%.

In the case of `COc1cc2cc(-c3ccc(OC)c(OC)c3C)nc(N)c2cc1OC`, the “% Inhibition @ 10 uM” value is reported as -5.67%. With `CCCN1C(=O)c2ccccc2NC1c1cc(OC)c(OC)c(OC)c1` (stereo not drawn), the “% Inhibition @ 10 uM” value was -0.478%.

Regarding `COc1ccc(CN2CCN(Cc3ccc(F)cc3)CC2)cc1`, the “% Inhibition @ 10 uM” value is listed as -5.23%. `COc1cccc(NC(=O)c2ccc(C)c(Br)c2)c1`: the “% Inhibition @ 10 uM” value is listed as -2.19%. With `CCNC(=O)c1c(NC(=O)COc2ccc(Br)cc2)sc2c1CCCC2` the figure was -5.11%.
